PubChem BioAssay AID1919003 (Molecular Pharmacology Branch, DTP, NCI, 2023)
Not every entry of the source has a single result; some have several. The list is limited to them. An entry can have further records. The values listed for one entry are repeated measurements across runs, samples, wells, individuals or studies. Counts like (3×) give the number of equal values in this list.

Test system: 786-0 complex spheroids with HUVEC/MSC, growth % test/control
Test: Anticancer human tumor 786-0 cell line growth inhibition [AhR];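 note: compound exposure lasted seven days before the read-out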
Conditions: stronger effect = lower value
Excerpt: Multicellular complex tumor spheroid response to aryl hydrocarbon receptor antagonists in combination with a variety of drugs and investigational agents in selected tumor cell lines
The current study was undertaken to assess response to aryl hydrocarbon receptor antagonists in combination with standard-of-care drugs and investigational agents in solid tumor complex spheroid models. Complex spheroids include a stromal component modeled by human endothelial cells (HUVEC) and fibroblasts modeled by human mesenchymal stem cells (MSCs). The concentration ranges selected for each drug and investigational agent were based upon clinically achievable concentrations if the clinical Cmax of the agent was known.
Compounds. The drugs and investigational agents: BAY 2416964 (NSC825713), GNF351 (NSC835774), CH-223191 (NSC835775), CPI-455 (NSC825282), aza-TdCyd (NSC777586), decitabine (NSC127716), belinostat (NSC758774), entinostat (NSC756642), pevonedistat (NSC761192), tazemetostat (NSC777109), talazoparib (NSC765396), olaparib (NSC753686), selinexor (NSC780203), nedisertib (M3814, NSC802822), bortezomib (NSC756655), venetoclax (NSC766270), doxorubicin (NSC123127), elimusertib (BAY189344, NSC800525), ceralasertib (AZD6738, NSC777638), TAK-243 (NSC785004), alisertib (NSC759677), etoposide (NSC141540), topotecan (NSC609699), eribulin (NSC707389), gemcitabine (NSC613327), carboplatin (NSC241240), cisplatin (NSC119875), and SN-38 (NSC673596) were obtained from the National Cancer Institute (NCI) Developmental Therapeutics Program Chemical Repository (32). The FDA-approved anticancer drug set is available from the Developmental Therapeutics Program at https://dtp.cancer.gov/organization/dscb/obtaining/available plates.htm. […] The stock solutions were prepared in dimethyl sulfoxide (DMSO, Sigma-Aldrich, St. Louis, MO, cat. D2650), except for the platinum compounds which were prepared in saline (Quality Biological, Gaithersburg, MD, cat. 114-055-101), at 800-fold the tested concentration and stored at -70 degrees C prior to their use. All drugs and investigational agents were tested over a range starting from a high concentration at or near the clinical Cmax and decreasing in half-log increments. If the clinical Cmax for an agent had not been determined, the highest concentration tested was 10 microM (Table 1).
Cell Culture. All cells were maintained in an incubator at 37 degrees C and 5% CO2 with 95% humidity. The PDC lines were cultured according to standard operating procedures established by the NCI PDMR (https://pdmr.cancer.gov). Briefly, all PDCs were thawed and cultured in Matrigel-coated flasks prepared with a working solution of 1X Ham's F-12 nutrient mix, without supplementation (Invitrogen, Waltham, MA, cat. 11765054), 100 U/mL penicillin-streptomycin (Invitrogen, cat. 15140122), and 2.5% Matrigel (Corning Inc., Corning, NY, cat. 354248) for the first three passages. All PDCs were cultured in complete DMEM/F-12 media containing advanced DMEM/F-12 (Invitrogen, cat. 12634028), 4.9% defined fetal bovine serum, heat inactivated (HyClone Laboratories Inc., Logan, UT, cat. SH30070.03HI), 389 ng/mL hydrocortisone (Sigma-Aldrich, cat. H4001), 9.7 ng/mL human EGF recombinant protein (Invitrogen, cat. PHG0313), 23.4 microg/mL adenine (Sigma-Aldrich, cat. A2786), 97.3 U/mL penicillin-streptomycin (Invitrogen, cat. 15140122), 1.9 mM L-glutamine (Invitrogen, cat. 25030081), and 9.7 microM Y-27632 dihydrochloride (Tocris Bioscience, Bristol, United Kingdom, cat. 1254). The PDCs were cultured in complete DMEM/F12 media without 10 microM Y-27632 dihydrochloride for at least two passages prior to the screen. The established cell lines NCI-H1341 and […] were cultured in DMEM/F-12, HEPES (Invitrogen, cat. 11330032), 5% defined fetal bovine serum (HyClone Laboratories Inc., cat. SH30070.03), ITS premix universal culture supplement [insulin (5 microg/mL), transferrin (5 microg/mL), and selenious acid (5 ng/mL)] […]

Cc1ccccc1N=Nc1ccc(NC(=O)c2ccnn2C)c(C)c1
viability, T/C (compound alone 3.16 µM): 81.9, 99.1, 97.3, 100, 91.5, 95.3, 96.5, 85.4, 90.6, 82.5, 84.5, 80, 88.7, 81.2, 98.5, 98.1, 94.6, 109, 103%
viability, T/C (compound alone 10 µM): 86.8 (2×), 99.6, 98.9, 95.2, 91.3, 91.5, 92.6, 95, 110, 97, 95.5, 104, 79.7, 85.7, 90.5, 106, 100, 92.8, 90.4, 89.8%

Cc1cncc(-c2nc(NCCc3c[nH]c4ccccc34)c3ncn(C(C)C)c3n2)c1
viability, T/C (compound alone 0.316 µM): 97.7, 106, 123 (2×), 113 (2×), 108 (2×), 115 (2×), 121 (3×), 103, 119, 127, 117, 116, 109, 110%
viability, T/C (compound alone 1 µM): 97.3, 96, 132, 110, 98, 108 (2×), 112 (4×), 106, 97.2, 115, 114 (3×), 98.5, 103, 92%
viability, T/C (compound alone 3.16 µM): 67.1, 68.8, 78.4, 82, 77.2, 89.6, 91.2, 69.6, 63.8, 82.7, 74.6, 71.3, 75.5, 79.8, 87.8, 74.8, 65.1, 76.2, 62.6, 57.9%

CC(CO)NC(=O)c1cc(-c2ccc(Cl)cc2)nn(-c2cnn(C)c2)c1=O (centres undefined)
viability, T/C (compound alone 0.316 µM): 101, 83.9, 65.5, 76.2, 93.5, 112, 102 (2×), 92.1, 97.9 (2×), 99.2, 105 (2×), 80.3, 104, 96.6, 94.2, 106, 93.9, 94.3%
viability, T/C (compound alone 1 µM): 94, 72, 86.3, 78.3, 94.2, 103, 97.4, 99.9, 100, 101, 93.3, 104 (2×), 95.9, 111, 96.9, 102, 94.5, 99.5, 92.8, 93.9%
viability, T/C (compound alone 3.16 µM): 98.8, 74.3, 80.3, 99.1, 106 (3×), 110, 90.9, 104, 108, 100 (2×), 98.4, 105, 102 (2×), 113, 107%
viability, T/C (compound alone 10 µM): 111, 137, 105 (4×), 109 (2×), 120 (2×), 98.8, 102, 107 (2×), 106, 113, 97.3, 112, 115%
